# Measured values from PubChem BioAssay AID1508642 (National Center for Advancing Translational Sciences (NCATS), 2021).
# The whole screen tested about 43,000 compounds, of which about 200 (0.47%) were called active. Another 12% or so got no clear call; they are omitted. Calls follow the shape of the dose curve; as a rule, active = well fitted cell-killing curve with a large enough effect; inconclusive = small, poorly fitted or top-dose-only effect, or effect the other way; inactive = flat fitted curve, though single readings scatter. Some of the results follow.
# Assay: Cell viability qHTS assay in S16 Pmp22-F2sN cells; also: nearly all actives have a fitted effect of over 65% in size
# Conditions: S16 Pmp22-F2sN Schwann cells (luciferase reporters placed in the Pmp22 gene) viability, CellTiter-Glo, 24 h; series mostly up to 57.5 µM; activity change, negative = cytotoxicity: at the top concentration
# Procedure, shortened: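 CellTiter-Glo counter-screen, qHTS, 1536-well. Cells: S16(c9) Pmp22-F2sN, 500-1,000/well in DMEM + 10% FBS. Cpd 23 nL pin transfer, 24 h, 37C/5% CO2. Read: luminescence, CCD imager.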
# % is scaled to controls: 0 for no effect and ±100 for the full control effect; potency is read from the fitted curve at half-maximal effect.
Structure (SMILES),"activity change, negative = cytotoxicity",Potency
Cc1ccc(NC(=O)[C@H]2O[C@@H]3OC(C)(C)O[C@@H]3[C@H]3OC(C)(C)O[C@H]32)cc1F,inactive: 8.54%,
CC(C(=O)Nc1ccccc1C(F)(F)F)n1nnc2sc3c(c2c1=O)CCCC3 (stereo not given),inactive: 3.51%,
CSc1nc(Nc2ccc(C)cc2)c(C#N)c(-c2ccccc2)n1,inactive: -2.03%,
O=C(NCCn1cc(SCc2ccccc2F)c2ccccc21)c1cccs1,inactive: 16.6%,
CCS(=O)(=O)NCC(c1ccco1)N1CCN(c2ccccc2)CC1 (stereo not given),inactive: -3.17%,
CCN1CCN(c2ncc3c(n2)CCN(Cc2sccc2C)C3)CC1,inactive: -17.4%,
CCOc1ccc(Nc2nc(C)c(NC(=O)c3ccc(C)cc3)c(Nc3ccc(OCC)cc3)n2)cc1,inactive: -9.86%,
COc1cc(NC(=O)CC(C)S(=O)(=O)c2ccc3c(c2)CCN3C(C)=O)cc(OC)c1OC (stereo not given),inactive: 2.28%,
Cc1ccccc1NC(=O)C(=O)NCC1(c2ccccc2)CCCC1,inactive: 11.4%,
COc1ccc(Cl)cc1NC(=O)c1cnc(SC)nc1-c1ccccc1,inactive: -2.75%,
CN(CC(=O)Nc1ccc(Cl)cc1F)S(=O)(=O)c1ccc2c(c1)n(C)c(=O)c(=O)n2C,inactive: 0.84%,
CCc1ccc(C(c2ccccc2)c2c[nH]c3ccc(C)cc23)s1 (stereo not given),inactive: 1.81%,
CCc1cccc(-n2nnc(-c3nsc(NC(=O)c4ccc(C)cc4)n3)c2C)c1,inactive: -19.8%,
Cc1sc2ncn(CC(=O)N3CCN(c4ccccc4)CC3)c(=O)c2c1S(=O)(=O)N1CCN(c2ncccn2)CC1,inactive: 10.7%,
Cc1ccc(NC(=O)CN(C)S(=O)(=O)c2cccc3cccnc23)cc1F,inactive: 1.95%,
CCOC(=O)Cc1ccc(NC(=O)N2CCc3c(sc4c3CCCC4)C2c2ccc(F)cc2)cc1 (stereo not given),inactive: -4.56%,
COc1ccc(Cl)cc1Nc1nc2ccc(C(=O)c3ccccc3)cc2n2cnnc12,inactive: 10.8%,
COc1ccc(Br)cc1CNC(=O)c1cnc2sc(N3CCCC3)nn2c1=O,inactive: -0.59%,
CN1CCN(C(CNC(=O)c2ccccc2F)c2ccc3c(c2)OCO3)CC1 (stereo not given),inactive: 19.5%,
O=C(Cn1c(=O)nc(-c2ccccc2)c2ccccc21)NCCc1ccc(Cl)cc1,inactive: 8.15%,
COc1ccc(C(=O)N(Cc2cc(OC)c(OC)c(OC)c2)c2ccccn2)cc1,inactive: 12.9%,
Cc1ccc(C)c(NC(=O)Cn2nnc(C(=O)NCc3ccccc3Cl)c2N)c1,,active: 14.1 µM
Fc1ccc(-n2ncc3c(NCCCn4ccnc4)ncnc32)cc1,inactive: -13%,
COc1cccc(C2NC(=O)c3n[nH]c(-c4cccs4)c32)c1 (stereo not given),inactive: 0.567%,

Structure (SMILES),"activity change, negative = cytotoxicity",Potency
CCCCN(CC)CCNC(=O)CCn1cnc2onc(-c3ccc(F)cc3)c2c1=O,inactive: -18.3%,
COc1ccc(NC(=O)c2sc3nc(-c4cc5ccc(OC)cc5oc4=O)[nH]c(=O)c3c2C)cc1,inactive: 11.6%,
Cc1cccc(-n2cc(-c3ccccc3)c3c(N4CCC(C)CC4)ncnc32)c1,inactive: 10.5%,
COc1cc(NC(=O)NCC2CCN(Cc3ccccc3Cl)CC2)cc(OC)c1OC,inactive: 0.604%,
Cc1cc2[nH]c(=O)c(=O)[nH]c2cc1S(=O)(=O)N1CCN(c2cccc(C(F)(F)F)c2)CC1,inactive: 20.1%,
COc1ccc(OC)c(CCNC(=O)CCc2cn(Cc3cc(C)ccc3C)c3ccccc23)c1,inactive: -14.3%,
O=C(Cn1c(=O)c2cccn2c2ccc(F)cc21)N1CCN(c2ccccc2F)CC1,inactive: 5.91%,
Cc1ccc(Cl)cc1NS(=O)(=O)c1ccc2c(c1)NC(=O)CCS2,inactive: -0.191%,
CCCn1c(=O)c2sccc2n2c(CCCC(=O)NC3CCC(C)CC3)nnc12 (stereo not given),inactive: 2.93%,
CCCCOc1ccc(C(=O)NCCc2csc(-c3cccc(F)c3)n2)cc1,inactive: 18.9%,
Cc1ccc(-n2ncc(C(=O)NCc3cccs3)c2C2CCN(C(=O)OC(C)(C)C)CC2)cc1,inactive: -17.8%,
Cc1ccc(CNC(=O)CN2C(=O)CCn3nc(-c4ccccc4)cc32)cc1,inactive: 9.46%,
COc1ccccc1NC(=O)C(C)Sc1nnc2ccc3ccccc3n12 (stereo not given),inactive: 10.2%,
CCc1cccc2c(-c3ccccc3)nc(SCC(=O)Nc3ccccc3OC)nc12,inactive: -3.2%,
COc1ccc(CNC(=O)C(C)Sc2nc(-c3ccccc3)cc(C(F)(F)F)n2)cc1 (stereo not given),inactive: -10.1%,
COc1ccc(OCC(=O)N2CCC(c3nc4ccccc4s3)CC2)cc1,inactive: -20.1%,
CCCCOc1ccc(C(=O)Nc2ccc3oc(-c4cccnc4)nc3c2)cc1,inactive: 0.251%,
O=C(NC1CCCC1)c1ccc(CSc2nc3ccncc3n2Cc2cccc(F)c2)cc1,inactive: -22.7%,
CCOc1cc(C(=O)NCc2ccc3c(c2)CCN3C(=O)c2ccc(F)cc2)cc(OCC)c1OCC,inactive: -5.56%,
CCc1ccccc1NC(=O)C1CCN(S(=O)(=O)c2ccccc2)CC1,inactive: 1.93%,
Cc1cccc(C(=O)Nc2ccc(-c3nc4ncccc4o3)cc2C)c1,inactive: 9.39%,
CC(C)OCCCNC(=O)c1cn(C)c2ccc(S(=O)(=O)N3CCCCCC3)cc2c1=O,inactive: -1.23%,
Cc1cccc(S(=O)(=O)c2cn(Cc3ccccc3)c3cc(N4CCOCC4)c(F)cc3c2=O)c1,inactive: -25.4%,
Cc1c2cnn(CC(=O)NCC(C)c3ccccc3)c(=O)c2c(C)n1Cc1cccc(Cl)c1 (stereo not given),inactive: 1.01%,

Structure (SMILES),"activity change, negative = cytotoxicity",Potency
Cc1ccc(CNC(=O)c2ccc3c(c2)c(C)c(C)n3Cc2ccccc2)o1,inactive: -12.1%,
O=C(COc1ccccc1Cl)OCc1cc(=O)n2nc(C3CCCCC3)sc2n1,inactive: -4.17%,
COc1cccc(C(=O)NCCc2csc(-c3ccc(Cl)cc3)n2)c1,inactive: -4.46%,
Cc1ccc(NC(=O)C2CCN(S(=O)(=O)c3ccc4[nH]c5c(c4c3)CCCCC5)CC2)cc1,inactive: -5.4%,
COc1ccccc1N1CCN(c2ncnc3onc(-c4ccc(F)cc4)c23)CC1,inactive: 0.0297%,
COC(=O)c1c(NC(=O)CCCOc2ccc(C(C)(C)C)cc2)sc2c1C(C(=O)OC)CC2 (stereo not given),inactive: -1.84%,
COc1ccc(N2CCN(C(=O)CCn3c(=O)[nH]c4cc(OC)c(OC)cc4c3=O)CC2)cc1,inactive: -4.41%,
CC1CN(C(=O)N2CCC(C(=O)NCc3cccs3)CC2)c2cc(Cl)ccc2O1 (stereo not given),inactive: -4.92%,
Cc1ccc(C)c(NC(=O)C2CCCN(c3nc4ccccc4s3)C2)c1 (stereo not given),inactive: 1.91%,
CCOC(=O)CSC1=Nc2ccccc2C2=NC(CCC(=O)NCc3ccc(F)cc3)C(=O)N12 (stereo not given),inactive: -2.05%,
O=C(NCc1cccc(F)c1)C1CCCN(C(=O)N2CCOc3ccccc32)C1 (stereo not given),inactive: -3.59%,
COc1ccc(OC)c(CNC(=O)c2ccc(C)c(NC(=O)c3nsc4ccccc34)c2)c1,inactive: -0.512%,
Cc1ccc(Cn2c(CNS(=O)(=O)c3cccc([N+](=O)[O-])c3)nc3cccnc32)cc1,inactive: -9.74%,
CCOc1ccc(OCC)c(NS(=O)(=O)c2cc(-c3cnc(C)o3)ccc2OC)c1,inactive: -27.6%,
COc1ccc(-c2cc(C)no2)cc1S(=O)(=O)Nc1c(C)cc(C)cc1C,inactive: -14.6%,
COC(=O)c1cc2sc(Cl)cc2n1Cc1c(C)cc(C)cc1C,inactive: 0.887%,
CCn1c2ccccc2c2cc(NC(=O)COc3ccc(C)cc3C)ccc21,inactive: -2.41%,
Cc1ccccc1-n1nc(CO)c(C(=O)NCc2cccnc2)n1,inactive: 5.21%,
CCc1cccc(C)c1NC(=O)Cn1cnc2c1c(=O)n(C)c(=O)n2C,inactive: 4.1%,
COCCNC(=O)Nc1cc(C(=O)NCc2ccc(C(C)C)cc2)ccc1N1CCCC1,inactive: 7.97%,
COc1ccc(OC)c(NC(=O)c2c(N3CCCC3=O)c3cc(OC)ccc3n2C)c1,inactive: 14%,
Cc1nc2nncn2c(Nc2ccccc2)c1C,inactive: -20.5%,
CCc1nn2c(=O)cc(COC(=O)c3cccc(NC(=O)c4cccs4)c3)nc2s1,inactive: 1.21%,
CCOC(=O)c1c(-c2ccccc2)csc1NC(=O)c1cc(=O)c2ccc(C)cc2o1,inactive: -8.92%,

Structure (SMILES),"activity change, negative = cytotoxicity",Potency
COc1ccc(CNC(=O)Cn2ncc3c4ccccc4n(Cc4cccc(Cl)c4)c3c2=O)cc1,inactive: 3.91%,
COc1ccc(OC)c(NCc2cccn2-c2nnc(N3CCCCC3)s2)c1,inactive: 11.3%,
CN1CCc2c(sc3c2C(=O)NC(c2ccc(OC(=O)c4ccccc4)cc2)N3)C1 (stereo not given),inactive: -2.31%,
Cc1ccc(C)c(S(=O)(=O)c2cn(C)c3cc(N4CCCCC4C)c(F)cc3c2=O)c1 (stereo not given),inactive: -18.9%,
COc1ccccc1CNC(=O)C1CCCN(C(=O)c2cnn(-c3ccc(F)cc3)c2-n2cccc2)C1 (stereo not given),inactive: -1.33%,
Cc1ccc(NC(=O)C(Cc2ccccc2)n2cccc2)cc1 (stereo not given),inactive: 1.22%,
COCCCn1c(=O)c2sccc2n2c(CCCC(=O)Nc3cc(C)cc(C)c3)nnc12,inactive: 11.9%,
Cc1cccc(-c2nc3c4ccccc4nc(N4CCN(c5ccccc5F)CC4)n3n2)c1,inactive: -1.58%,
Cc1ccc(CNC(=O)NCc2noc3ccc(C)cc23)cc1,inactive: 1.59%,
COc1ccc(C(=O)NCCn2cc(SCC(=O)Nc3ccc(C)cc3)c3ccccc32)cc1,inactive: 0.901%,
Cn1c(=O)c2c(-c3ccc(Cl)cc3)n(Cc3ccc(Cl)cc3)cc2n(C)c1=O,inactive: 1.36%,
COc1ccc(C)cc1NC(=O)c1ccc2c(=O)n3c(nc2c1)CCCCC3,inactive: -15.2%,
CCN(C(=O)CCS(=O)(=O)c1cc2[nH]c(=O)c(=O)[nH]c2cc1C)c1ccccc1,inactive: 8.26%,
COc1ccc(-c2noc(N3CCC(C(=O)Nc4ccc(F)cc4Cl)CC3)n2)cc1,inactive: -3.5%,
Cc1ccc2c(c1)C(=O)OC(C(=O)Nc1ncc(Cc3ccc(C(C)C)cc3)s1)C2 (stereo not given),inactive: 3.85%,
CCOc1ccc(C(c2c(O)cc(C)n(CCOC)c2=O)N2CCN(c3ccccc3)CC2)cc1 (stereo not given),inactive: -9.55%,
COc1cccc(CNC(=O)C(CC(C)C)NS(=O)(=O)c2ccc3c(c2)oc(=O)n3C)c1 (stereo not given),inactive: -20.7%,
Cc1c2cnn(CC(=O)N3CCCCC3)c(=O)c2c(C)n1Cc1ccc(F)cc1,inactive: 3.6%,
CCCN(CCC)C(=O)Cn1c(=O)n(-c2cccc(OC)c2)c(=O)c2c(C)c(C(=O)N(C)C)sc21,inactive: -0.302%,
Cc1ccc(N(CC(=O)N2CCN(c3ccc(Cl)cc3)CC2)S(=O)(=O)c2c(C)nn(C)c2C)cc1,inactive: -4.4%,
O=C(NCCc1ccc(F)cc1)C(=O)NCC(c1cccs1)S(=O)(=O)c1ccc(F)cc1 (stereo not given),inactive: -1.32%,
Cc1ccc(-c2cn3nc(N4CCCC(C(=O)Nc5ccc(F)cc5)C4)sc3n2)cc1 (stereo not given),inactive: -7.55%,
Cc1ccc(CN2C(=O)c3ccccc3Sc3ccc(C(=O)NC4CCCC4)cc32)cc1,inactive: -0.209%,
